Drawing on paper PMC9911399, “Two distinct binding modes provide the RNA-binding protein RbFox with extraordinary sequence specificity”, this text covers binding signal for 31 molecules.

To fix the notation:
B1: UCCUCAC (DNA:RNA)
RNA: GGGAGACCGGAAUUCAGAUUGUCCUCCUCACUUAAAUCCCGUCGUAGCCACCA
DNA 1: CAATCTGAATTCCGGTCTCCC
DNA 2: TGGTGGCTACGACGGGATT
B2: ACAAUAU (DNA:RNA)
RNA: B1 RNA with U25A, C27A, U28A, C29U, C31U
DNA 1: CAATCTGAATTCCGGTCTCCC
DNA 2: TGGTGGCTACGACGGGATT
B3: CGCGGCG (DNA:RNA)
RNA: B1 RNA with U25C, C26G, U28G, C29G, A30C, C31G
DNA 1: CAATCTGAATTCCGGTCTCCC
DNA 2: TGGTGGCTACGACGGGATT
B4: CGCUAGU (DNA:RNA)
RNA: B1 RNA with U25C, C26G, C29A, A30G, C31U
DNA 1: CAATCTGAATTCCGGTCTCCC
DNA 2: TGGTGGCTACGACGGGATT
B5: AGGAAGU (DNA:RNA)
RNA: GGGAGACCGGAAUUCAGAUUGUCCAGGAAGUUUAAAUCCCGUCGUAGCCACCA
DNA 1: CAATCTGAATTCCGGTCTCCC
DNA 2: TGGTGGCTACGACGGGATT
B6: CAGGAUA (DNA:RNA)
RNA: B5 RNA with A25C, G26A, A28G, G30U, U31A
DNA 1: CAATCTGAATTCCGGTCTCCC
DNA 2: TGGTGGCTACGACGGGATT
B7: AGUAACA (DNA:RNA)
RNA: B5 RNA with G27U, G30C, U31A
DNA 1: CAATCTGAATTCCGGTCTCCC
DNA 2: TGGTGGCTACGACGGGATT
B8: GUCGCAA (DNA:RNA)
RNA: B1 RNA with U25G, C26U, U28G, C31A
DNA 1: CAATCTGAATTCCGGTCTCCC
DNA 2: TGGTGGCTACGACGGGATT
B9: AUAGGGC (DNA:RNA)
RNA: B5 RNA with G26U, G27A, A28G, A29G, U31C
DNA 1: CAATCTGAATTCCGGTCTCCC
DNA 2: TGGTGGCTACGACGGGATT
B10: GCCAGCG (DNA:RNA)
RNA: B1 RNA with U25G, U28A, C29G, A30C, C31G
DNA 1: CAATCTGAATTCCGGTCTCCC
DNA 2: TGGTGGCTACGACGGGATT
B11: UGCCGGU (DNA:RNA)
RNA: B5 RNA with A25U, G27C, A28C, A29G
DNA 1: CAATCTGAATTCCGGTCTCCC
DNA 2: TGGTGGCTACGACGGGATT
B12: CUGCGAG (DNA:RNA)
RNA: B5 RNA with A25C, G26U, A28C, A29G, G30A, U31G
DNA 1: CAATCTGAATTCCGGTCTCCC
DNA 2: TGGTGGCTACGACGGGATT
B13: UGUUAGA (DNA:RNA)
RNA: B5 RNA with A25U, G27U, A28U, U31A
DNA 1: CAATCTGAATTCCGGTCTCCC
DNA 2: TGGTGGCTACGACGGGATT
B14: GCUUUUG (DNA:RNA)
RNA: B1 RNA with U25G, C27U, C29U, A30U, C31G
DNA 1: CAATCTGAATTCCGGTCTCCC
DNA 2: TGGTGGCTACGACGGGATT
B15: AGGAACC (DNA:RNA)
RNA: B5 RNA with G30C, U31C
DNA 1: CAATCTGAATTCCGGTCTCCC
DNA 2: TGGTGGCTACGACGGGATT
B16: GACGUAG (DNA:RNA)
RNA: B1 RNA with U25G, C26A, U28G, C29U, C31G
DNA 1: CAATCTGAATTCCGGTCTCCC
DNA 2: TGGTGGCTACGACGGGATT
B17: CGACGGG (DNA:RNA)
RNA: B5 RNA with A25C, G27A, A28C, A29G, U31G
DNA 1: CAATCTGAATTCCGGTCTCCC
DNA 2: TGGTGGCTACGACGGGATT
B18: CUUGACG (DNA:RNA)
RNA: B5 RNA with A25C, G26U, G27U, A28G, G30C, U31G
DNA 1: CAATCTGAATTCCGGTCTCCC
DNA 2: TGGTGGCTACGACGGGATT
B19: GUCGGGC (DNA:RNA)
RNA: B1 RNA with U25G, C26U, U28G, C29G, A30G
DNA 1: CAATCTGAATTCCGGTCTCCC
DNA 2: TGGTGGCTACGACGGGATT
B20: AGCUCAA (DNA:RNA)
RNA: B1 RNA with U25A, C26G, C31A
DNA 1: CAATCTGAATTCCGGTCTCCC
DNA 2: TGGTGGCTACGACGGGATT
B21: CAUACAC (DNA:RNA)
RNA: B1 RNA with U25C, C26A, C27U, U28A
DNA 1: CAATCTGAATTCCGGTCTCCC
DNA 2: TGGTGGCTACGACGGGATT
B22: CAUAGAU (DNA:RNA)
RNA: B5 RNA with A25C, G26A, G27U, A29G, G30A
DNA 1: CAATCTGAATTCCGGTCTCCC
DNA 2: TGGTGGCTACGACGGGATT
B23: UCAGAUA (DNA:RNA)
RNA: B1 RNA with C27A, U28G, C29A, A30U, C31A
DNA 1: CAATCTGAATTCCGGTCTCCC
DNA 2: TGGTGGCTACGACGGGATT
B24: CAGCGGG (DNA:RNA)
RNA: B5 RNA with A25C, G26A, A28C, A29G, U31G
DNA 1: CAATCTGAATTCCGGTCTCCC
DNA 2: TGGTGGCTACGACGGGATT
B25: GAUCUCU (DNA:RNA)
RNA: B5 RNA with A25G, G26A, G27U, A28C, A29U, G30C
DNA 1: CAATCTGAATTCCGGTCTCCC
DNA 2: TGGTGGCTACGACGGGATT
B26: UAGGCUC (DNA:RNA)
RNA: B1 RNA with C26A, C27G, U28G, A30U
DNA 1: CAATCTGAATTCCGGTCTCCC
DNA 2: TGGTGGCTACGACGGGATT
B27: ACGGGUA (DNA:RNA)
RNA: B5 RNA with G26C, A28G, A29G, G30U, U31A
DNA 1: CAATCTGAATTCCGGTCTCCC
DNA 2: TGGTGGCTACGACGGGATT
B28: GGGGUGA (DNA:RNA)
RNA: B5 RNA with A25G, A28G, A29U, U31A
DNA 1: CAATCTGAATTCCGGTCTCCC
DNA 2: TGGTGGCTACGACGGGATT
B29: GGCGGUC (DNA:RNA)
RNA: B1 RNA with U25G, C26G, U28G, C29G, A30U
DNA 1: CAATCTGAATTCCGGTCTCCC
DNA 2: TGGTGGCTACGACGGGATT
B30: GAUUUGA (DNA:RNA)
RNA: B5 RNA with A25G, G26A, G27U, A28U, A29U, U31A
DNA 1: CAATCTGAATTCCGGTCTCCC
DNA 2: TGGTGGCTACGACGGGATT
B31: GUAAAGU (DNA:RNA)
RNA: B5 RNA with A25G, G26U, G27A
DNA 1: CAATCTGAATTCCGGTCTCCC
DNA 2: TGGTGGCTACGACGGGATT

Changes are numbered by the printed parent chain; changes in the protein carry UniProt numbers. The list shows a part of the results.

This assay addresses T1, RBFOX1 RRM (Homo sapiens, UniProt Q9NWB1 109-208).
T1 sequence: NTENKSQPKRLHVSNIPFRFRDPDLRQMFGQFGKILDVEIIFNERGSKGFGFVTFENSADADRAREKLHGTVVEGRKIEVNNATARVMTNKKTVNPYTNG
The assay is described as follows: EMSA; HiTS-Eq, 1 nM pool, 10 min; buffer printed only for the single-RNA assays: 10 mM Tris pH 7.5, 150 mM NaCl, 3.4 mM EDTA, 0.001% NP-40, 30 C. To be noted: tags: His6 N-terminal (pET28a); label: 5' 32P. In outline: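 These values rest on relative association constants, computed from read-count changes of each RNA species versus the control reaction and normalised to the cognate motif. Reads came from free RNA recovered by 8% native PAGE after purified RbFox RRM (wild type or mutant) at increasing concentrations was equilibrated for 10 min in 50 µL with 1 nM of a 5′-radiolabelled pool with 7 randomized nucleotides and DNA-annealed flanks.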
(In general: A gel shift assay detects complexes by their altered migration in electrophoresis.)
Regarding B1, the binding signal was 0.00186 KA relative to UGCAUGU.

Regarding B2, the binding signal was 0.000362 KA relative to UGCAUGU.

Take B3: the binding signal is 0.02 KA relative to UGCAUGU.

Turning to B4, the binding signal was 0.0168 KA relative to UGCAUGU.

As to B5, the binding signal was 0.0147 KA relative to UGCAUGU.

For B6, the binding signal is 0.0109 KA relative to UGCAUGU.

B7: the binding signal was 0.00267 KA relative to UGCAUGU.

As for B8, the binding signal is 0.0102 KA relative to UGCAUGU.

As to B9, the binding signal is 0.00593 KA relative to UGCAUGU.

Turning to B10, the binding signal is 0.0147 KA relative to UGCAUGU.

Turning to B11, the binding signal was 0.0131 KA relative to UGCAUGU.

For B12, the binding signal is 0.0208 KA relative to UGCAUGU.

Turning to B13, the binding signal was 0.0238 KA relative to UGCAUGU.

On to B14, for which the binding signal is 0.0193 KA relative to UGCAUGU.

With B15, the binding signal was 0.0126 KA relative to UGCAUGU.

In the case of B16, the binding signal was 0.0129 KA relative to UGCAUGU.

With B17, the binding signal was 0.00383 KA relative to UGCAUGU.

Regarding B18, the binding signal was 0.00838 KA relative to UGCAUGU.

Consider B19, for which the binding signal is 0.0126 KA relative to UGCAUGU.

In the case of B20, the binding signal was 0.00348 KA relative to UGCAUGU.

Turning to B21, the binding signal was 0.000201 KA relative to UGCAUGU.

For B22, the binding signal was 0.00513 KA relative to UGCAUGU.

As to B23, the binding signal is 0.00488 KA relative to UGCAUGU.

For B24, the binding signal was 0.00703 KA relative to UGCAUGU.

Take B25: the binding signal is 0.0194 KA relative to UGCAUGU.

For B26, the binding signal was 0.0162 KA relative to UGCAUGU.

For the molecule B27, the binding signal was 0.0125 KA relative to UGCAUGU.

Consider B28, for which the binding signal was 0.0239 KA relative to UGCAUGU.

Turning to B29, the binding signal is 0.0152 KA relative to UGCAUGU.

In the case of B30, the binding signal is 0.0237 KA relative to UGCAUGU.

Take B31: the binding signal was 0.00819 KA relative to UGCAUGU.
